This is an account of results in ChEMBL document CHEMBL4888484, “Replenishing the malaria drug discovery pipeline: Screening and hit evaluation of the MMV Hit Generation Library 1 (HGL1) against asexual blood stage Plasmodium falciparum ,using a nano luciferase reporter read-out” (2022).

The campaign covered roughly 150,000 compounds. About 540 (0.36%) showed an effect of 50% or more. This is one part of the list.

The subject of this test is Plasmodium falciparum. The test is described as follows: Primary screen in NF54 nanoGlo assay, in single point, at 2uM, 72h; a lower Z score goes with more inhibition. In kind it is functional, Erythrocyte. The settings on record: timepoint 72 hour.
A word on the % Inhibition: it is the drop in the measured response relative to a control, in per cent. `Cc1cnc(NCC[C@H]2CCCN(C)C2)nc1N(C)C`: the “% Inhibition” value was -6% and the Z score is 0.65.
For `C[C@H]1CS(=O)(=O)CCN1CCCc1nc(-c2ccccc2)no1`, the “% Inhibition” value is reported as -10% and the Z score was determined as 1.84.
For `Cc1cc(N(C)CCn2cccn2)n2nc(C)cc2n1` the same measures were -1% and 0.07.
For `CC(C)(C)CC(=O)NC[C@H](O)c1ccc(-c2ccco2)o1` the same measures were 7% and -0.99.
For `Cc1nc(CCCC(=O)N[C@H]2CCN(C(C)C)C2=O)cs1` the same measures were -5% and 0.65.
With `O=C(NCCC1=CCCCC1)C1CCN(S(=O)(=O)c2cc(Cl)ccc2Cl)CC1`, the “% Inhibition” value came out at 3% and the Z score is on record as -0.42.
With `Cc1noc(C)c1CN1CC[C@H](NC(=O)c2ccccc2C#N)[C@@H](O)C1`, the “% Inhibition” value is on record as -19% and the Z score is recorded as 1.79.
For `O=S(=O)(CCc1ccccc1)N1CCC(n2ccnn2)CC1` the same measures were -3% and 0.49.
For `COc1ccccc1CNC(=O)c1cn(CC2(O)CCN(Cc3ccccc3)CC2)nn1`, the “% Inhibition” value was 39% and the Z score is reported as -1.11.
For `CCn1ncc(Br)c1C(=O)NCCc1cn(C)cn1` the same measures were -17% and 1.83.
For `O=c1c2cc(-c3cccc(Br)c3)nn2ccn1C[C@H](O)c1ccc(Cl)cc1` the same measures were 0% and -0.05.
For `O=C(N1CCOCC1)C1(F)CCN(S(=O)(=O)Cc2ccccc2)CC1` the same measures were -7% and 0.92.
Take `Cc1c(C(=O)NC[C@H]2COCCO2)c2ccccc2n(C)c1=O`: the “% Inhibition” value is -3% and the Z score was 0.33.
For `CC(NCC(O)c1cnn(C)c1)c1cc(Cl)cc(Cl)c1F` (stereo not drawn) the same measures were -18% and 3.63.
For `CC[C@@H](C(=O)N1CC(Oc2cccnc2)C1)c1ccccc1` the same measures were -8% and 1.51.
For `CC(C)Cc1ccc(CN2C[C@@H](CN(C)C)[C@@H](CO)C2)s1` the same measures were -4% and 0.65.
For the molecule `CCn1nc(CN2CCC(NC(=O)c3cnn(C)c3C)CC2)c2c1CCOC2`, the “% Inhibition” value is reported as 7% and the Z score is -0.85.
For `O=C(N[C@@H](C1CC1)C1(CO)CCOCC1)c1ccc(O)c(F)c1` the same measures were -7% and 1.27.
For `CN1C[C@@]2(CCN(C(=O)NCc3cnc4c(c3)CCC4)C2)OCC1=O` the same measures were 2% and -0.39.
For `Cc1cccc(CN2CCC(C(=O)NCc3ccc(N4CCN(C)CC4)cc3)CC2)c1` the same measures were 12% and -2.08.
Regarding `CCn1cc(CNc2ccn(CCOC)n2)cn1`, the “% Inhibition” value turned out to be 4% and the Z score is -0.84.
For `CC(C)(C)n1nc(-c2c[nH]c3ccccc23)nc1[C@H]1CCS(=O)(=O)C1` the same measures were -4% and 0.83.
`Cn1ncnc1CNc1c(F)cccc1Cl`: the “% Inhibition” value was -9% and the Z score stood at 0.95.
For `Cc1cc(C(=O)N[C@@H](COCC(C)C)c2ccco2)n(C)n1` the same measures were -4% and 0.71.
For `Cc1nccn1[C@@H](C)C(=O)N1CCCCCCC1` the same measures were -10% and 1.57.
In the case of `CCN(CC)C(=O)c1cc(-c2ccc(C)s2)cc(S(=O)(=O)N2CCOCC2)c1`, the “% Inhibition” value was found to be 3% and the Z score is listed as -0.34.
For `C[C@H](NC(=O)Nc1ccn(C2CCN(C)CC2)n1)c1ccon1` the same measures were 4% and -0.7.
For `C[C@H]1CN(C)CCN1CC1CCN(C(=O)CCC2CCCCC2)CC1` the same measures were -7% and 0.81.
With `CCc1noc(CN2N=C(C(=O)N3CCCCCC3)S(=O)(=O)c3ccc(C)cc32)n1`, the “% Inhibition” value is -7% and the Z score amounted to 0.83.
In the case of `CN1CCC[C@H](Nc2cc(C(=O)N3CCOCC3)ccn2)C1`, the “% Inhibition” value is given as -5% and the Z score is 0.97.
Take `CN(Cc1cnccn1)C(=O)[C@@H]1COc2ccc(Br)cc21`: the “% Inhibition” value is listed as -1% and the Z score is on record as 0.11.
For `C[C@@H](C(=O)N(C)C)S(=O)(=O)N(C)C1CCC(CO)CC1` (stereo partly drawn) the same measures were -4% and 0.79.
`Cc1noc(CNC(=O)c2nnc(C(C)(C)C)[nH]2)n1`: the “% Inhibition” value is on record as -9% and the Z score is 1.15.
For `Cc1ccc(O)c(C(=O)N2CCc3c(nc(C)nc3N3CCCC3)C2)c1` the same measures were -8% and 1.25.
For `O=C(CCc1nnc(CCc2ccccc2)o1)N1CCC(CN2CCCCC2)CC1` the same measures were -7% and 1.04.
Turning to `O=C1CC[C@@H](C(=O)NCC2CCN(C(=O)c3cccs3)CC2)N1`, the “% Inhibition” value stood at 8% and the Z score was -0.94.
As to `CNC(=O)[C@@H]1CC[C@](C)(C(=O)NCCCc2cccnc2)C1(C)C`, the “% Inhibition” value is on record as -9% and the Z score was 1.33.
Regarding `O=C(CN1CCCCCC1=O)N1CCCCCC1`, the “% Inhibition” value was -11% and the Z score is given as 1.67.
Regarding `CCn1nccc1C(=O)N1CCCN(Cc2c(C)noc2C)CC1`, the “% Inhibition” value is recorded as 0% and the Z score is -0.05.
In the case of `CCN(CC)c1ccc(/C(N)=N/O)cc1`, the “% Inhibition” value amounted to 25% and the Z score is given as -2.84.
Take `CCOC(=O)CNC(=O)N1CCC2(CC1)NC(=O)c1ccc(Cl)cc1N2`: the “% Inhibition” value is given as -11% and the Z score was 1.89.
For `Cc1nc(N)nc(C)c1Cc1nc(C(C)C)nn1-c1ccccc1` the same measures were -15% and 2.35.
As to `Cc1ccc(-c2nc(Cn3nnc(-c4nc(-c5cccc(F)c5)no4)c3C)c(C)o2)cc1`, the “% Inhibition” value is recorded as -14% and the Z score is reported as 1.94.
For `O=S(=O)(c1ccc(Oc2ccc3c(c2)OCO3)nc1)N1CCCCC1` the same measures were -16% and 1.33.
With `O=C(c1ccc(F)c(F)c1)N1CC(n2ccnn2)C1`, the “% Inhibition” value is given as -19% and the Z score is given as 2.2.
For `O=C(NCc1ccc(Cn2cccn2)cc1)c1ccc2ccccc2n1` the same measures were -11% and 1.45.
As to `CCCC[C@@H](c1cccnc1)N(C)Cc1csc(C)n1`, the “% Inhibition” value was determined as 3% and the Z score is on record as -0.46.
For `O=C(COC1CCCC1)Nc1ccc(-c2ccccc2)cn1` the same measures were 6% and -0.69.
For `CC(C)C(=O)N(C)CC(=O)NCc1ccc(OC2CCCCC2)nc1` the same measures were -10% and 1.36.
For `COC[C@H]1CCCN1[C@@H]1[C@H](O)[C@H](CO)O[C@@H]1CNC(=O)c1cccc(F)c1` the same measures were 16% and -1.88.
`Cc1cc(F)c(CNC(=O)N2CCS(=O)(=O)CC[C@@H]2C)c(F)c1`: the “% Inhibition” value came to 1% and the Z score is -0.08.
For `Cc1ccc(CCNC(=O)N2CCCCO2)nc1` the same measures were -15% and 2.88.
For `Cc1nc2cc(NS(C)(=O)=O)cc(C(=O)NCc3ccccc3Cl)c2n1Cc1ccccc1` the same measures were -6% and 0.89.
As for `CCN(CC)S(=O)(=O)CC(=O)NC1CC2CCC1C2` (stereo not drawn), the “% Inhibition” value is on record as 10% and the Z score is listed as -1.5.
